Measurements reported in PubChem BioAssay AID686978 (National Center for Advancing Translational Sciences (NCATS), 2013).
Hit rate of the full screen: of about 420,000 compounds, about 64,000 (15%) were called active. The inconclusive results got no clear call from the source; some entries with a clear call stand among them for comparison. The call rests on the fitted dose curve; in most records, active means well fitted inhibition curve with a large enough effect; inconclusive means small, poorly fitted or top-dose-only effect; inactive means flat fitted curve, though single readings scatter. No potency is given beside an inconclusive call; the fits are too rough.
On the % scale 0 is the no-effect control and ±100 the full control effect; potency means the concentration at half of the fitted maximal effect; tags describe the fitted curve by direction and shape.

Assay: qHTS for Inhibitors of human tyrosyl-DNA phosphodiesterase 1 (TDP1): qHTS in cells in absence of CPT; further: nearly all actives have a fitted effect of over 55% in size
Details: DT40 Tdp1-/- hTDP1 cells, no CPT, ATP luminescence, 48 h; activity change, negative = growth inhibition: at 46.2 µM (top of the series) unless noted
Method in brief: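 Camptothecin absent (DMSO only). Human TDP1-complemented DT40 knockout cells, 400 cells/well, 37 °C for minimum 48 hr; ATP measured via CellTiter-Glo, 30 min dark incubation, luminescence.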
With `C[C@@H]1NC(=O)[C@H](CCC(=O)O)NC(=O)c2cc([N+](=O)[O-])cc(F)c2NCCC[C@@H](C(N)=O)NC1=O` the “activity change, negative = growth inhibition” value was inactive: 10.4%. For `CC1(Cc2cc(Cl)ccc2C(F)(F)F)C(=O)Nc2cc(F)ccc21` (stereo unspecified), the Potency was active: 14.6 µM. In the case of `Cc1ccc(NC(=O)Cc2coc3c(C)c(C)ccc23)c(C)c1`, the Potency is reported as inconclusive [inhibitor, single point]. With `CS(=O)(=O)Nc1cccc(-c2nc(NCc3cccnc3)c3ccccc3n2)c1` the Potency was inconclusive [inhibitor, single point]. With `Cc1ccc(-n2c(C)c3c(C)nnc(C)c3c2C)cc1N` the Potency was inconclusive [inhibitor, single point]. With `COc1ccc(NC(=O)c2ccc3[nH]c(C)cc(=O)c3c2)cc1` the “activity change, negative = growth inhibition” value was inactive: -17.3%. With `O=C(O)CC(NC(=O)Cc1ccccc1)c1ccccc1` (stereo unspecified) the “activity change, negative = growth inhibition” value was inactive: -2.27%. In the case of `CC(C)C(=O)N1CCC1(C)C(=O)Nc1ccc(-n2cccc2)cc1` (stereo unspecified), the Potency is reported as inconclusive [inhibitor, single point]. In the case of `CCOC(=O)c1sc(NC(=O)CN2CCN(c3ccccc3)CC2)nc1C`, the Potency is reported as inconclusive [inhibitor, single point]. With `COc1ccc(/C=C2\SC(=O)N(CC(=O)NNC(=O)c3ccccc3O)C2=O)cc1` the “activity change, negative = growth inhibition” value was inactive: -24%. For `COc1ccc(Sc2ccc(NC(=O)c3ccccc3Cl)cc2C#N)cc1`, the Potency was active: 13 µM. With `COc1ccc(C(=O)NCc2nc(-c3cccc(NC(=O)c4ccc(C)s4)c3)oc2C)cc1` the Potency was active: 14.6 µM. With `Fc1ccc2nc(Nc3nc4c(F)cccc4s3)sc2c1` the Potency was inconclusive [inhibitor, single point]. With `COc1ccc(OCC(=O)N/N=C/C(C)=C/c2ccco2)c(Br)c1` the Potency was inconclusive [inhibitor, partial curve]. For `CCCOC(=O)c1ccc(Nc2cc(C)nc3ncnn23)cc1`, the Potency was inconclusive [inhibitor, single point]. With `COc1cccc(/C=C(/CC(=O)Nc2ccc(N3CCOCC3)cc2)c2nc3ccccc3s2)c1` the Potency was inconclusive [inhibitor, single point]. For `CS(=O)(=O)N(CC(=O)Nc1cc(Cl)ccc1Cl)c1ccccc1`, the Potency was inconclusive [inhibitor, single point]. For `CCCCCCCOc1ccc(-c2ccc(C#N)cn2)cc1`, the activity change, negative = growth inhibition was inconclusive: -32.3% [inhibitor]. With `COc1cccc(/C=C2\Oc3cc(OCC(=O)N4CCCC4)ccc3C2=O)c1OC` the Potency was inconclusive [inhibitor, single point]. In the case of `COc1cccc(C(=O)Nc2cc3c(cc2Cl)OCCCO3)c1`, the “activity change, negative = growth inhibition” value is reported as inactive: -23.7%. For `Cc1noc(C)c1S(=O)(=O)Nc1ccc(O)c2c(=O)cc(-c3ccccc3Cl)oc12`, the Potency was inconclusive [inhibitor, single point]. In the case of `Cc1ccccc1-c1ccc2c(c1)O[C@H](CN(C)C(=O)C1CC1)[C@@H](C)CN([C@@H](C)CO)S2(=O)=O`, the “activity change, negative = growth inhibition” value is reported as inactive: -24.2%. For `O=C1C2C3C=CC(C2C(=O)N1c1nccs1)C1C(=O)N(c2nccs2)C(=O)C31` (stereo unspecified), the “activity change, negative = growth inhibition” value was inactive: 12.4%. In the case of `CC1CCN(C(c2cccs2)c2nnnn2Cc2ccccc2)CC1` (stereo unspecified), the Potency is reported as inconclusive [inhibitor, single point]. For `COc1cc(CNc2ccc(C)c(C)c2)cc(OC)c1OC`, the Potency was active: 1.3 µM. For `CCc1cc2c(cc3c(=O)n(CC(=O)NCCCN4CCCCCC4)nc(CC)n32)s1`, the Potency was inconclusive [inhibitor, single point]. In the case of `CCCC(C)C(=O)Nc1ccncc1` (stereo unspecified), the activity change, negative = growth inhibition is reported as inconclusive: -30.2% [inhibitor]. With `COc1ccc(CNC(=O)CN2CCC(C(=O)c3ccc(OC)cc3)CC2)cc1` the Potency was inconclusive [inhibitor, partial curve]. With `CCN1CCN(C(=O)/C=C/c2ccc(C)cc2)CC1` the “activity change, negative = growth inhibition” value was inactive: 16.2%. For `S=C(NCC1CCCO1)N1CCN(c2cccc(Cl)c2)CC1` (stereo unspecified), the Potency was inconclusive [inhibitor, single point]. With `COc1ccc(CCn2c(O)c(C=Nc3cccc(F)c3)c(=O)[nH]c2=O)cc1OC` the “activity change, negative = growth inhibition” value was inactive: -25.9%. For `CN1c2ccccc2-c2nc(SCC(=O)Nc3ccccc3)ncc2S1(=O)=O`, the Potency was active: 18.4 µM. In the case of `O=C(CN1CCCC1c1cccs1)Nc1cccc(S(=O)(=O)N2CCCC2)c1` (stereo unspecified), the Potency is reported as inconclusive [inhibitor, partial curve]. With `CC(=O)c1cccc(NC(=O)CN(C)Cc2ccc(OC(F)F)cc2)c1` the Potency was inconclusive [inhibitor, single point]. In the case of `COc1ccc(C(=O)OCCN2CCCCC2)cc1`, the “activity change, negative = growth inhibition” value is reported as inactive: -0.42%. With `COc1ccc(CC(=O)NCc2nnc(SCC(=O)Nc3cccc(F)c3)n2C)cc1` the “activity change, negative = growth inhibition” value was inactive: -23.6%. For `CCc1nn(CCCC(=O)NCc2ccc(OC)c(OC)c2)c(=O)c2cc3occc3n12`, the Potency was inconclusive [inhibitor, partial curve]. For `CCN(CCCNC(=O)c1ccc(Sc2ccc(Cl)cc2)c(NC(C)=O)c1)c1cccc(C)c1`, the Potency was inconclusive [inhibitor, single point]. For `COc1ccc(Cl)cc1C(=O)NNC(=O)c1cc2ccccc2o1`, the Potency was inconclusive [inhibitor, partial curve, poor fit]. In the case of `COc1ccc(/C=C/C(=O)NC(=S)NNC(=O)c2cc(OC)c(OC)c(OC)c2)cc1`, the Potency is reported as active: 9.2 µM. In the case of `Cc1ccc(NC(=O)c2ccc3c(=O)n4c(nc3c2)CCCCC4)cc1F`, the Potency is reported as inconclusive [inhibitor, single point]. For `NC(=O)c1ccccc1NC(=O)CSc1nc2c(c(=O)[nH]1)CCCC2`, the Potency was inconclusive [inhibitor, single point]. In the case of `Cc1ccc(Cc2c[nH]c(=S)s2)cc1`, the Potency is reported as inconclusive [inhibitor, single point]. In the case of `Cc1ccc(NS(=O)(=O)c2cc3c4c(c2)CC(=O)N4CCC3)cc1C`, the “activity change, negative = growth inhibition” value is reported as inactive: -5.25%. With `Cc1ccc(C)c(NC(=O)CN(Cc2ccccc2)S(=O)(=O)c2ccc3nc(C)sc3c2)c1` the Potency was inconclusive [inhibitor, partial curve]. For `CCC1(c2ccccc2)NC(=O)N(CC(=O)Nc2ccc(S(=O)(=O)N3CC(C)CC(C)C3)cc2)C1=O` (stereo unspecified), the Potency was inconclusive [inhibitor, single point]. With `Cc1ccc(N=Cc2c(O)n(-c3ccc4c(c3)OCO4)c(=O)c3ccccc23)cc1` the Potency was inconclusive [inhibitor, single point]. In the case of `CCN(CC)S(=O)(=O)c1ccc(Oc2ccccc2OC)cc1`, the Potency is reported as inconclusive [inhibitor, single point]. In the case of `Cc1cc(N/N=C/c2ccncc2)c([N+](=O)[O-])cc1[N+](=O)[O-]`, the “activity change, negative = growth inhibition” value is reported as inactive: -17.2%. For `COc1ccc(CCNC(=O)c2ccc(Cl)cc2Cl)cc1`, the “activity change, negative = growth inhibition” value was inactive: -10.8%. In the case of `Cc1ccc(N(CC(=O)NCc2ccc(F)cc2)C(=O)CCC(=O)Nc2ccccn2)cc1C`, the Potency is reported as inconclusive [inhibitor, single point]. For `Cc1cc(Br)ccc1NC(=O)c1sc2ncn(Cc3ccccc3Cl)c(=O)c2c1C`, the Potency was inconclusive [inhibitor, partial curve]. For `COc1ccccc1CNC(=O)c1cc(-c2ccccc2C)nn1CC1CC(c2cccnc2)=NO1` (stereo unspecified), the Potency was inconclusive [inhibitor, single point]. In the case of `Cc1ccc(-n2ncc3c(NCc4ccccc4)ncnc32)cc1C`, the Potency is reported as inconclusive [inhibitor, single point]. For `Cc1ccc(C(=O)C2CCN(S(=O)(=O)c3ccccc3C(=O)O)CC2)cc1`, the “activity change, negative = growth inhibition” value was inactive: 0.0946%. In the case of `CCS(=O)(=O)Nc1ccc(Cc2ccncc2)cc1`, the “activity change, negative = growth inhibition” value is reported as inactive: -27.4%. With `CC(=O)Nc1cccc(NC(=O)COc2ccc3c(c2)CCC3)c1` the Potency was inconclusive [inhibitor, single point]. In the case of `Cc1nn2c(=O)cc(COC(=O)c3ccc(S(=O)(=O)N4CCCCC4)cc3)nc2s1`, the “activity change, negative = growth inhibition” value is reported as inactive: -0.0281%. For `COC(C(=O)Nc1ccc(Br)cc1F)c1ccccc1` (stereo unspecified), the activity change, negative = growth inhibition was inconclusive: -30.1% [inhibitor]. With `CCCCNC(=O)C12CCC(C)(C(=O)C1Br)C2(C)C` (stereo unspecified) the “activity change, negative = growth inhibition” value was inactive: -15.4%. For `CCC(=O)Nc1cccc(NC(=S)NC(=O)c2ccccc2Cl)c1`, the Potency was inconclusive [inhibitor, single point]. In the case of `O=C(CSc1oc(-c2ccco2)nc1S(=O)(=O)c1ccc(Br)cc1)c1ccc(Cl)cc1`, the Potency is reported as inconclusive [inhibitor, single point]. For `Cc1ccc(C2CC(c3cccs3)=NN2C(=O)c2ccco2)o1` (stereo unspecified), the Potency was inconclusive [inhibitor, single point]. With `CN(c1cccc(NC(=O)c2ccc(Cl)c(S(=O)(=O)N3CCOCC3)c2)c1)S(C)(=O)=O` the Potency was active: 11.6 µM. For `CN1C(C(=O)NCCc2cccs2)CC2Cn3c(nc4ccccc43)C21` (stereo unspecified), the “activity change, negative = growth inhibition” value was inactive: 21.3%. With `CC(N)c1csc(Nc2ccc(S(C)(=O)=O)cc2)n1` (stereo unspecified) the “activity change, negative = growth inhibition” value was inactive: -0.407%. For `COc1ccc(-n2cc(CN(C)C(C)c3ccncn3)c(-c3cccc(F)c3)n2)cc1` (stereo unspecified), the Potency was inconclusive [inhibitor, single point]. In the case of `COc1ccc(/C=C(/C(=O)Nc2ccccc2C(=O)N2CCCC2)c2ccccc2)cc1`, the Potency is reported as inconclusive [inhibitor, single point]. For `O=C(NC1CCCC1)C(c1cccnc1)N(Cc1ccccc1F)C(=O)c1csnn1` (stereo unspecified), the “activity change, negative = growth inhibition” value was inactive: -0.453%. With `CC1CCN(S(=O)(=O)c2cccc(C(=O)N(C)C3(C)CCS(=O)(=O)C3)c2)CC1` (stereo unspecified) the Potency was “inactive”. In the case of `COc1cc(-c2cccc(OC)c2OC)cc2c1OCCN(Cc1cn[nH]c1-c1ccc(Cl)cc1)C2`, the Potency is reported as inconclusive [inhibitor, single point].
